Sequences with one replicate were seen in a single cluster, so their values are uncertain.
system: ATP; assay: switch fluorescence ratio, 500 uM ATP over buffer (Cy3 cluster intensity, sum of 5 cycles each) (fold (ratio)); higher = stronger signal-on switching upon ATP binding; sequences stand for … in TCGTCGGCAGCGTCAGATGTGTATAAGAGACAGTTTTTTTTTTTTTTTTTTTTTTTTT…TC; conditions: aptamer strand: ATP DNA aptamer (quencher-CACCTGGGGGAGTATTGCGGAGGAAGG + anchor), 100 nM annealed; ATP concentration: 500 uM; one replicate
Method in brief: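 Five buffer/ATP imaging cycles were run on Cy3-labelled switching-strand clusters on a modified Illumina MiSeq flow-cell, with NaOH stripping and re-annealing between cycles. In each cycle, clusters annealed to 100 nM quencher-labelled ATP aptamer were imaged in selection buffer, then after 15 min with 500 uM ATP at 22 °C. Per cluster, the fluorescence ratio is summed target-cycle over summed buffer-cycle Cy3 intensity, averaged per switch-domain sequence. Only clusters within 100-1000 RFU were kept.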
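Note: ATP exposure 15 min at 22 °C before imaging.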

Sequence	switch fluorescence ratio
ACAAATTACT	1.07
AGGACCAAA	1.02
CGGCTAAGCG	1.02
CGAGGCCGCG	0.971
CCGGTACGGT	1.04
CGTGCAGAGT	0.973
TGATTAATT	0.977
TGTAATCAAC	0.993
TGTCCAGCCC	1
GACGCCGCTA	1.47
CCTATGTGTC	1.06
GAATACATTT	1.01
TACGCAGGTT	1
TGACCTTCA	2.27
GCGGCCCGTT	1.02
TTTTCGTAGT	1.14
GGGCGTGCAT	1
TTAAGGCGGC	0.978
GGCTAATCTT	0.991
CAAACGGGGC	1.07
TTGAGGGTAC	1.08
AGGTCTCCGC	1.72
AGCTCAATTT	0.986
TGAGAGCGGT	1.01
CGTATAAATG	0.961
CGAAGGGGTC	1.03

Sequence	switch fluorescence ratio
ACCCGGATTA	1.02
GCGACACGTA	1.08
CGAAGGGGCC	0.976
TTAACTTAGA	0.995
CATATAGATA	0.982
CCGATTGGTG	1.16
ACATCAGGAT	0.998
GCGTGTATAT	0.994
CGTTTAGCTG	1.11
GATCTCAGCG	0.968
TTGGGAGCG	0.996
TCGGAAGGAG	1.01
GGCGCGGGGC	1.05
CGGTTCATGG	0.993
ATTCTTTGTA	0.986
CAACAGGACT	1.09
CTTGTCGGTC	0.992
GCAGTGGCAA	1.01
CCCCACCGGA	0.979
TTTCGGGCCG	0.953
CTTTATGTTA	1
TCCCCAGTAG	1.16
AGATTCTCTA	0.969
TGGACGTGTG	0.985
TAGACTTTCG	0.981
AAATAAACTC	1

Sequence	switch fluorescence ratio
CAGCCAGA	1.06
AGACGGACAT	1.06
AGCCTACCAA	1.47
GGGCCCTGCA	0.976
CGGGAACC	1.02
CGACGAAGTC	1.03
TACGTGGAGA	1.02
ATAGGTGCGC	0.991
CACATTTCGG	1.06
TATGTGTGGC	1.05
TACCCCCATT	1.59
TTAAATTTCA	0.985
TTGCCTAGAA	0.996
CAATACTCTT	2.39
GGTAATCCTA	0.998
ACGACTTTGG	0.996
ACCCGTCACG	1.08
GATCGCAAGG	1.08
ACGTCCGAAG	1.63
GAGTTTCGGT	1.02
TCACAAGGAG	0.971
AGGCTACAGC	1.02
ATAAGTACGT	1.29
AAAGATTGAA	0.967
GCGAGAGGGG	1
GAACATTTA	0.964

Sequence	switch fluorescence ratio
GTCAGGACGG	1.02
GAGGAAATGC	0.967
TCGCTCTATT	0.992
AATTTCGGTT	1
AGTGCTAAAA	1.01
GAGGTGGCGA	0.962
GAAAGTGCTC	0.98
CGATCTCTT	0.99
GGGTACGGGC	1.05
GGTCGTTGTC	0.97
GCGAGCTAAA	1.04
GGGCGCGAGT	1.03
AGCGTTAAAA	0.961
GGGTGATTAC	0.989
ATCTAGCGGC	1.08
TCCAGTCAGA	1.03
GTAGTCGCCC	1.02
GCGTTGCCAC	1
AGATTTTAAC	0.994
GCAAGGCGGG	0.942
TAAATTAAGG	0.966
CAAGTGGTTT	1.04
CTTGATGCCT	0.997
TACTTGATTT	0.982
TATCAGTTTG	0.986
ACGTGATCCA	1.04

Sequence	switch fluorescence ratio
TGACCAGGCG	1.16
GTAGCACGAG	1.32
TGCGCTAGAG	1.07
TATCTTTCGT	1.02
TCCGGATCTC	1.35
GGAGAAATTG	1.03
TGCGTTGTAA	1
CTGCCAGTA	1.02
TGCGAGTAGA	1
GGAACCGAGG	1.06
CATTCGAGTT	1.01
TTTATATACT	1.03
GGAACAGGCG	1.01
TATGTATCAC	1.06
ACTACCATTG	1.17
ACGGTGCCTG	1.01
CGGATAAGTC	0.986
TCGGAGATGC	1.14
AGTATTTCGG	0.936
GTTCCCGTGT	1.01
AATTAATTAC	0.998
CAGGCATACG	1.06
TCAATCGCCG	1.01
ATTTGGTTCT	0.951
GCATATGCGC	0.998
TTAATTCTTA	1.02

Sequence	switch fluorescence ratio
CTCGTAGGAA	1.03
CCAGGTTATA	0.989
GAGAGCAATA	6.08
TTTAATAACA	0.973
TGTGTATGG	0.979
CTAATTCAGT	0.983
TATAATTTGC	1.07
TGAAAGACGA	1.02
TTTACGCTCA	1.05
GGCAGTGTGG	0.971
AGTTTGACA	1
TTTCGTGC	0.951
ATAGACGCAC	1.78
ATTTCTTTAC	1.01
GATACCTTAG	1.04
TATCAACGCG	1.01
ACATTTATGA	0.994
GAGGCTGAGG	1.01
TAGATTCTCT	0.999
GGGACCAGCC	1.02
TTAGGGAAGC	0.954
GCGCCCATCC	1.13
CATGTGTTGG	0.987
TATACATACA	1.35
TGATGAAGGC	1.03
GAGTTATAA	1.02

Sequence	switch fluorescence ratio
TTGCACTCCC	2.26
TAAATTAATA	0.982
CGGTAAAAT	1.01
TTCGATATTA	1
AAGAAGTTAC	0.987
ATTATAGAGT	1.03
AACCTGTCCG	1.33
ATCAGTGTTT	0.985
ACTTGGGGTC	1.02
ATTTTATCT	1.02
AGCGAACGAC	1.66
CACTGAGTTG	0.999
TAAATCTTAG	0.947
ATGACCATTA	0.966
ATTTGTCTTT	0.987
AAAGAGACCC	0.943
CGGTAGCAAC	5.44
GGGGAGGACG	0.957
GGTATGGTGT	1.01
TGGGTCCATG	1.01
GGCAACCTTT	1.05
TCGCGGTCCG	1.02
TCCTGGGTCC	0.969
CCATTAGGTT	1.03
GTGATGATGA	0.969
GACAAGAATG	0.994

Sequence	switch fluorescence ratio
TACAGCGACG	0.978
CAGTTGTCAA	0.977
CTGGGTCGCA	1.01
GGTCTAATTA	0.953
TTGAACTGC	1.02
TAATTGATTT	0.989
TACCACACAA	1.2
CTATGAGCAT	1.12
CCTAAAAAAT	1.04
CCAGTCGCCC	1.03
GCCCAGGTGA	1.32
CCGGACTTAG	1.06
GAGAGGATAC	1.01
GTTAACAGGT	1.02
CGATCACCC	0.996
CGCTTTCGTA	1.01
ACCAAGTCT	0.983
AGGTGTCCAT	1
TGGGTCCTTT	1.05

Source: the supplement of paper PMC10126150
